Results from the supplement of paper PMC3334620.
Over roughly 33,000 sequences, “E-score (-0.5 to 0.5)” has its median near -0.013; the highest 2% begin near 0.3. The list shows a part of the results.

Target: T1, Msn1 (UniProt P22148)
T1 sequence: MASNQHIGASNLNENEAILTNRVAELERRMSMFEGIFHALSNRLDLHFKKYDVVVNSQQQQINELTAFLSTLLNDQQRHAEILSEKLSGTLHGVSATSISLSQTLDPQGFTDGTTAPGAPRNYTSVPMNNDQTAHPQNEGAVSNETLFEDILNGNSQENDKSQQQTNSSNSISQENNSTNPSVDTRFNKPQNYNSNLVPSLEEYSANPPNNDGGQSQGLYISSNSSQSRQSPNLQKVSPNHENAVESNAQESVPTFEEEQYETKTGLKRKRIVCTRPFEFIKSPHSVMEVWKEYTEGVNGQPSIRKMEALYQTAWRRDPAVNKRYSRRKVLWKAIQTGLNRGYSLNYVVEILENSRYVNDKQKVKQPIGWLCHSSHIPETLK
Test: PBM E-score (8-mer binding enrichment) (E-score (-0.5 to 0.5)); higher = stronger / more preferred TF binding; most listed sequences are background and not binding sites
Settings: protein concentration: 200 nM; construct: GST-full length
Procedure, shortened: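 E-scores (a modified Wilcoxon-Mann-Whitney statistic) were assigned by the Universal PBM Analysis Suite to every ungapped eight-base word pooled with its reverse complement. The input came from universal all-10-mer Agilent arrays made double-stranded by primer extension and probed with GST-tagged yeast transcription factors at about 100-200 nM. Fluorescent anti-GST detected bound protein, and masliner normalised the scans.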

Sequence | PBM E-score
ACGGAGAC | 0.164
GCTAGCGA | -0.046
AGCAGGCA | -0.302
TACCACAA | 0.19
TCCTAACA | 0.254
AGTCGATC | -0.11
AAAACACC | 0.0787
CTTCAGCC | -0.206
ACGTAGCG | -0.138
ACGACAAA | 0.435
AAGAGTCT | -0.0597
CAAGGTCG | -0.221
CACTGAAG | -0.0489
CGGGCCTC | -0.114
CGAGTTAA | 0.0871
AATTGGTA | 0.0485
GCTGTCTA | -0.14
CGATTCAG | -0.00412
CCATTAGC | -0.122
TCCCGACA | 0.255
AAAGAATA | 0.199
GTCCTCTA | -0.00417
AGACTTCA | 0.00292
AATAAGAA | 0.262
CAACGGAC | 0.121

Sequence | PBM E-score
ATGGGCCC | -0.307
CTTCGTGC | -0.0725
AGGGCGTC | -0.259
CTCCCCTA | -0.263
ATTTTACA | 0.0389
CGCTTGCA | -0.183
CGCCGCAG | -0.323
ACGCCAGC | -0.195
TAGCCTCA | -0.0568
GGCGACTA | -0.117
CTCAATCC | 0.055
GCATGCAC | -0.107
CCGAATCA | -0.0491
GCCATTAA | 0.116
ACAGTCCC | -0.108
TAGGGGAA | -0.198
AGAAGGAT | -0.336
CCTTGAAG | -0.146
ACCCCATA | -0.0715
GACTCCCA | -0.145
GCGTTATA | -0.053
GACACGAA | 0.204
GGGTCGTA | -0.204
CATGGGTC | -0.128
AGCTCTAG | -0.0245

Sequence | PBM E-score
GAATCAAC | 0.0586
TACGTGCA | -0.17
CACATCAA | -0.00024
ATCCCCCC | -0.456
CGTATATC | -0.154
ACCGCAAC | 0.0188
CGTGCCTA | -0.195
CTCAGGCC | -0.235
CTTTTCCA | -0.215
ACTCCGCT | -0.208
AGTACTCG | 0.107
CGCCAGGC | -0.174
AGGTTAGA | -0.0736
AGTTCACA | -0.0407
TCAATCAA | 0.0177
ATGGAGTG | -0.193
ACTATCAT | 0.0702
AAGTGAAG | -0.134
AAACGGCT | -0.197
AGTAACAA | 0.0634
CGCCTACA | 0.0079
CGCCTAGC | -0.241
GCACGCAA | -0.195
GGAATATA | 0.206
CTACAGAG | -0.0572

Sequence | PBM E-score
ATGGTGGC | -0.276
GAGTCATA | 0.0749
ATATTTAC | 0.16
GGAACGGA | -0.00048
AAAAGTGA | 0.0095
CCGAGCTA | -0.0148
CACGAGGA | 0.078
CATGCAAG | -0.182
TATGTAGA | 0.0206
AGATGAGC | -0.0343
ATCCTGTA | 0.184
AGCAAATG | 0.0209
TAGAGACA | 0.377
GGCATTAC | 0.0489
GAGATCTC | 0.0688
CAATCGGG | 0.0731
CTGCGTCC | -0.0512
GGCTTTAA | -0.102
ATCGTGAG | -0.19
CGCGTCAA | 0.0339
AGCCAAAC | -0.0538
CGAATCTC | 0.025
ATACTAAA | 0.164
CCGCTGCC | -0.125
CAAATACC | 0.154

Sequence | PBM E-score
ACGACGCC | -0.176
ATGCGAGA | 0.0519
CATCAAAG | -0.0249
ACTACGTG | -0.236
AAACCTTA | 0.0206
AAACTATA | 0.0437
CAGTCCGC | -0.118
CACCGTGG | -0.177
GGCTGCGA | -0.0567
AGCTAAAG | 0.0177
ACTGGGAT | -0.0208
CGGCAGGC | -0.107
AGGCAAGG | -0.205
ACATATAC | 0.268
ATGGACGG | 0.051
CGTAATTA | 0.105
CGTACGAC | 0.0832
CAGATCAC | 0.0686
GGAGTCGA | -0.137
CGATGGAG | -0.0659
GTGATTCA | 0.0352
CGGCGGGC | -0.109
GGTAGTTA | -0.213
ACGCTGGG | -0.406
AATGTCCG | 0.481

Sequence | PBM E-score
AGACTGGA | 0.0289
CACATGTG | -0.149
CATCAACA | 0.0868
TGAGCTCA | 0.0495
CCTGGCTA | -0.0297
CAGGAGTC | -0.119
CACAAGGC | 0.0181
CCCTCAGG | -0.273
ACTGAAAT | 0.17
ATGATGTC | 0.3
AGTTACTG | -0.0503
AGAAATGG | -0.076
ACTCGGGA | 0.209
CGATCCGC | -0.0465
AGTATTAC | 0.0644
AACGTGGC | -0.00246
AAGCCCAA | -0.183
CACAGAGA | -0.035
CAACCGGA | 0.0644
CAATCTAG | 0.131
CACTAACG | -0.0567
CCTTCCTC | -0.288
CGGTAAAA | 0.171
GACCTGCC | -0.13
GAATATTC | 0.201

Sequence | PBM E-score
GCGTGACC | -0.0242
CGTGTCTC | 0.26
AAGCAGAT | 0.00204
ACGATACC | 0.0844
TGCGATAA | 0.208
CGTACACA | 0.0883
ATGTCACC | 0.303
ACTAGGCG | 0.0151
CGAATCGA | 0.213
TGCAAACA | -0.222
ATCCCGCG | 0.156
CGTTGCTC | -0.145
GTTGTAGA | 0.111
CGAAAAGA | 0.141
ATGTAGAA | -0.0168
CAATCAAG | 0.0312
CACAGTTA | 0.142
AAATCGCC | -0.132
ATGAGTTG | 0.0774
CTCGTGGA | 0.208
GAGCGTGA | -0.149
ATAAGGCA | -0.188
